# Measured values as given in PubChem BioAssay AID463173 (ICCB-Longwood Screening Facility, Harvard Medical School, 2010).
# Hit rate of the full screen: of about 52,000 compounds, about 1,700 (3.3%) were called active. No stated cut-off is given here; in the data, active means survival mostly below about 52% (no sharp cut-off); inactive means mostly above about 56%. The list shows a part of the results.
# Test system: Wild type
# Experiment: S. aureus survival, RN4220 and DeltatarO strains – OD600, teichoic acid synthesis inhibitors, primary screen (AID 463173)
# Details: S. aureus RN4220 wild type/DeltatarO growth, OD600, 18 h, hits give low values, screened at 18.75 µg/mL (by protocol)
row,SMILES,survival
1,Cc1ccc(Nc2c(-c3ccc(N(C)C)cc3)nc3nc[nH]n23)cc1,inactive: 88%
2,Cc1ccc2c(=O)cc(C(=O)Nc3ccc(S(=O)(=O)N4CCC(C)CC4)cc3)oc2c1C,inactive: 88%
3,CC(=O)c1ccc(S(=O)(=O)Nc2ccc(-c3ccc(N4CCCCCC4)nn3)cc2)cc1,inactive: 83%
4,COc1cccc(-c2nn3c(=O)cc(CN4CCN(S(=O)(=O)c5ccc(C)cc5)CC4)nc3s2)c1,inactive: 99%
5,Cc1ccc(CSc2nnc(-n3c(=O)c(C#N)cc4c(=O)n5cccc(C)c5nc43)s2)cc1,inactive: 96%
6,O=C(Cc1ccccc1)Nc1sc2c(c1C(=O)Nc1ccccc1)CCCCC2,inactive: 78%
7,COc1cc(C2CC(=O)Nc3c2c(C)nn3-c2nc(C)cc(C)n2)cc(OC)c1O (stereo not given),inactive: 82%
8,COc1ccc(-c2nc3ccccc3n3c(-c4cccc(C)c4)c4c(=O)n(C)c(=O)n(C)c4c23)cc1,inactive: 74%
9,Cc1ccc(C(=O)C2CCN(C(=O)Cc3ccccc3)CC2)cc1,inactive: 105%
10,CSc1nc(=O)c2c(n1C)NC(=O)CC2c1ccccc1OC(C)C (stereo not given),inactive: 84%
11,O=C(CC1(O)C(=O)N(CCc2ccccc2)c2ccc(Br)cc21)c1ccc(F)cc1 (stereo not given),active: 4%
12,CCOc1ccc(CCNC(=O)CCCn2c(=O)c3cccn3c3cccnc32)cc1OCC,inactive: 90%
13,CCc1ccc2c(c1)c(=O)c(S(=O)(=O)c1ccc(Cl)cc1)cn2CC,inactive: 89%
14,Cc1nn(Cc2ccc(Cl)c(Cl)c2)c(C)c1NC(=O)c1noc2c1CCc1ccccc1-2,inactive: 72%
15,COc1cccc(-c2cn3c(n2)sc2cc(C(=O)NCCCc4ccccc4)ccc23)c1,inactive: 49%
16,CSc1ccc(CNC(=O)C2CCCN(S(=O)(=O)N(C)c3ccc(F)cc3)C2)cc1 (stereo not given),inactive: 88%
17,COC(=O)CC1Oc2ccccc2-n2cc(-c3ccc(C)cc3)nc21 (stereo not given),inactive: 78%
18,CCSc1nsc(NC(=O)Nc2cccc(F)c2)n1,active: 0%
19,COc1ccc(/C=N/NC(=O)c2ccc3c(c2)NC(=O)C(C)(C)O3)cc1OC,inactive: 106%
20,COc1ccccc1CC(=O)Nc1cccc(C)n1,inactive: 104%
21,COc1cccc(CNCCSc2nnnn2C)c1OCc1ccccc1,inactive: 85%
22,CC(C)CCNC(=O)C1CC(=O)N(c2ccccc2)C1 (stereo not given),inactive: 103%
23,Cc1ccc2nc(NS(C)(=O)=O)sc2c1,inactive: 101%

row,SMILES,survival
1,Nc1c(C(=O)NCc2ccc(Cl)cc2Cl)nnn1Cc1ccc(Br)cc1,inactive: 64%
2,Fc1ccc(CN(Cc2ccco2)Cc2nnnn2CCc2ccccc2)cc1,inactive: 125%
3,CCc1ccc(CNC(=O)c2cc3cc(S(=O)(=O)N4CCCCC4)ccc3n2C)cc1,inactive: 47%
4,CCCn1ccc2c(OCC(=O)Nc3cc(C)ccc3C)cccc2c1=O,inactive: 124%
5,Cc1ccc(S(=O)(=O)NCC2CCC(C(=O)NCc3ccc(F)cc3)CC2)cc1 (stereo not given),inactive: 75%
6,COc1ccc(OCC(=O)Nc2cc(-c3ccccc3F)nn2-c2ccccc2)cc1,inactive: 73%
7,COc1ccc(C)cc1NC(=O)C1CCN(S(=O)(=O)c2c(C)noc2/C=C/c2ccco2)CC1,inactive: 73%
8,COc1cccc(-n2c(-c3ccc(Cl)cc3)cc3c2CC(C)(C)CC3=O)c1,inactive: 16%
9,O=C(Nc1ccc(F)cc1F)C(Cc1ccccc1)N1Cc2ccccc2C1=O (stereo not given),active: -6%
10,COc1ccc(C2(C(=O)N3CCCC3)CCCC2)cc1OC,inactive: 102%
11,COc1cc2c(=O)n(Cc3ccccc3Cl)c(=O)n(CC(=O)Nc3ccccc3)c2cc1OC,inactive: 70%
12,O=C(CCC(=O)N1CC2CCCN2c2ccccc21)NCc1cccc(Cl)c1 (stereo not given),active: 10%
13,Cc1ccc(-c2nnc(SCC(=O)NC3CCCC3)nc2-c2ccc(C)cc2)cc1,inactive: 85%
14,Cc1ccc(C(=O)Nc2nc3ccc(S(=O)(=O)N4CCCC4)cc3s2)cc1,inactive: 89%
15,CC(C)CNC(=O)C1C2C=CC(C2)C1C(=O)O (stereo not given),inactive: 108%
16,CCOc1ccc(NC(=O)CCC(=O)N2CC(C)Oc3ccc(C)cc32)cc1 (stereo not given),inactive: 83%
17,COc1ccc(CN2C(=O)c3oc4ccc(F)cc4c(=O)c3C2c2ccc(O)cc2)cc1 (stereo not given),inactive: 100%
18,CC(C)CNS(=O)(=O)c1ccccc1,inactive: 120%
19,CCCCn1cc2c(c1-c1ccccc1Br)c(=O)n(C)c(=O)n2C,inactive: 89%
20,Cc1nc(N2CCOCC2)c2c(C(=O)NCCc3ccccc3)c(C)oc2n1,active: -3%
21,CC(C)Nc1nc(NC(C)C)nc(N(C)C)n1,inactive: 115%
22,Cc1ccc(C(=O)n2nc(-c3ccco3)nc2NCc2cccs2)cc1,inactive: 88%
23,CCOC(=O)C1CCN(S(=O)(=O)c2cc3c4c(c2)CC(=O)N4CCC3)CC1,inactive: 88%

row,SMILES,survival
1,CCC1=NN(C(=O)Cc2ccccc2)C(O)(c2ccccc2)C1 (stereo not given),inactive: 107%
2,C#CCOc1ccc(C2C3=C(CCCC3=O)N(CCC(=O)O)C3=C2C(=O)CCC3)cc1,inactive: 118%
3,O=C(CSc1nc2c(c(=O)[nH]1)CN(Cc1ccc(F)cc1)CC2)Nc1ccccc1Cl,inactive: 79%
4,O=C(NCCc1ccccc1Cl)c1ccc2c(c1)nc1n2CCOC1,inactive: 76%
5,CN(C)S(=O)(=O)n1cc(/C=C(\NC(=O)c2ccccc2Cl)C(=O)NCCCn2ccnc2)c2ccccc21,inactive: 103%
6,O=C(NCCc1ccccc1)C1(c2cccs2)CCOCC1,inactive: 73%
7,CCN(CC)CCNC(=O)c1nn(-c2ccc(OC)c(Cl)c2)c(=O)c2c1c1ccccc1n2C,inactive: 78%
8,COc1cc(OC)cc(-c2nc3nc(C)c(CCC(=O)Nc4ccc(F)cc4F)c(C)n3n2)c1,inactive: 122%
9,COC(=O)CNc1cccc(C(F)(F)F)c1,inactive: 96%
10,COc1cccc(C(=O)N2c3nc(-c4ccco4)nn3C3(CCCCC3)[C@@H]3CCCC[C@@H]32)c1,inactive: 107%
11,CCc1nn(C(C)C(=O)N2CCN(c3cccc(C(F)(F)F)c3)CC2)c(=O)c2cc3occc3n12 (stereo not given),inactive: 101%
12,CCCNC(=O)c1c(C)nn(-c2cccc(C)c2)c1-n1cccc1,inactive: 47%
13,Cc1ccc(Cn2cc(C(=O)c3ccc(F)cc3)c(=O)c3cc4c(cc32)OCCO4)cc1,inactive: 84%
14,CCc1ccccc1NC(=O)CSCc1cnn(-c2ccccc2)c1-n1cccc1,inactive: 77%
15,CCOc1ccccc1CNCCNC(=O)c1nonc1N,inactive: 128%
16,COc1cc(OC)c(NC(=O)CC(c2cccs2)N2Cc3ccccc3C2=O)cc1Cl (stereo not given),inactive: 101%
17,Cc1ccc2ncc3c(-c4ccc(F)cc4)nn(-c4cccc(F)c4)c3c2c1,inactive: 78%
18,Cc1ccccc1Nc1sc(C(=O)c2ccccc2)c(N)c1C(=O)NCc1ccc(Cl)cc1,inactive: 73%
19,Cc1ccc2c(c1)c1c(c(=O)n(-c3ccccc3C)c(=O)n1CC(=O)N1CCCC1)n2C,inactive: 85%
20,C=CCN1C(=O)CSC1=Nc1ccc(C(=O)O)cc1,inactive: 106%
21,CCOCCn1ccc2c(OCC(=O)NCc3ccc(C)cc3)cccc2c1=O,inactive: 95%
22,Cc1ccccc1NC(=O)CSc1nnc(COc2ccc(Cl)cc2)o1,inactive: 86%
23,COc1ccc(-c2cn3nc(N4CCCC(C(=O)Nc5cccc(Cl)c5C)C4)sc3n2)cc1 (stereo not given),inactive: 85%

row,SMILES,survival
1,CN(C)CCNC(=O)c1ccc2c(c1)N(Cc1ccccc1)C(=O)c1ccccc1S2(=O)=O,inactive: 98%
2,CCCSc1ncc(Cl)c(C(=O)NCc2ccc(OC)cc2)n1,inactive: 89%
3,CC(CN1CCCC1)OC(=O)c1ccc(F)cc1 (stereo not given),inactive: 109%
4,COCCCNC(=O)N1[C@H](c2cccs2)[C@@H](C)C(=O)[C@@H](C)[C@@H]1c1cccs1,inactive: 74%
5,O=C1c2[nH]nc(-c3ccccc3O)c2C(c2cccc(O)c2)N1Cc1ccncc1 (stereo not given),inactive: 90%
6,O=C(Cn1cc(C(=O)c2ccncc2)c(=O)c2cc(F)ccc21)Nc1ccc(Cl)cc1,inactive: 77%
7,COc1ccccc1CNC(=O)CCn1c(=O)c2ccccc2n(CC(=O)Nc2ccc(Br)cc2F)c1=O,inactive: 100%
8,Cc1ccc(O)c(NC(=O)c2noc3c2CCCC3)c1,inactive: 67%
9,Cc1ccc2c(c1)N(S(=O)(=O)c1cc(-c3onc(C)c3C)ccc1C)CCO2,inactive: 97%
10,O=C(CN1C(=O)COc2ccc(S(=O)(=O)N3CCCC3)cc21)N1CCN(c2ccc(Cl)cc2)CC1,inactive: 129%
11,COc1cccc(-n2cc(C(=O)OCc3ccc(F)c(F)c3)c3ccccc3c2=O)c1,inactive: 71%
12,CCCCNc1nc2c(c(=O)n(C)c(=O)n2C)n1CC(O)COc1ccccc1C (stereo not given),inactive: 80%
13,O=C(Nc1ccc(F)c(Cl)c1)C1CCN(S(=O)(=O)c2ccc3[nH]c(=O)ccc3c2)CC1,inactive: 47%
14,COc1ccc(C(=O)Nc2nnc(S(=O)(=O)N3CCCc4ccccc43)s2)cc1,inactive: 56%
15,Cc1ccc2nc(-c3cccc(NC(=O)c4ccc(Br)o4)c3)oc2c1,active: 7%
16,CCOc1ccccc1-n1nnc(-c2nc(-c3ccccc3C)no2)c1C,inactive: 72%
17,Cc1nn(C)c2c1c(C(F)(F)F)cc(=O)n2CC(=O)N1CCCCC1,inactive: 67%
18,O=C(O)c1cccc(Nc2ncnc3ccc(Br)cc23)c1,inactive: 127%
19,Cc1ccc(C(=O)Nc2nc3n(n2)C(c2ccc(F)cc2)C=C(c2ccccc2)N3)cc1 (stereo not given),inactive: 61%
20,Cc1ccc(Cl)cc1NC(=O)N1CCC(CN2CCCCCC2)CC1,inactive: 59%
21,Cc1ccc(NC(=O)CSc2ccc3nnc(CCNS(=O)(=O)c4ccccc4)n3n2)cc1Cl,inactive: 87%
